Measurements taken from publication PMC4395284.
These are yes or no findings as the source states them, for the method shown. Binding seen in cells or lysates may run through a third protein. Some results given as binding are weak or reduced against the parent protein; the word gives no strength. One block for each molecule: values may come before it.

Sequences of proteins named here, by UniProt entry; tags and fusion partners are left off. A change or cut given only in a name is not applied to a line headed by its entry. A line that says so, or that is headed by a name, gives the form on record, which may keep a tag or linker. Residues count along the entry.
UniProt O54803: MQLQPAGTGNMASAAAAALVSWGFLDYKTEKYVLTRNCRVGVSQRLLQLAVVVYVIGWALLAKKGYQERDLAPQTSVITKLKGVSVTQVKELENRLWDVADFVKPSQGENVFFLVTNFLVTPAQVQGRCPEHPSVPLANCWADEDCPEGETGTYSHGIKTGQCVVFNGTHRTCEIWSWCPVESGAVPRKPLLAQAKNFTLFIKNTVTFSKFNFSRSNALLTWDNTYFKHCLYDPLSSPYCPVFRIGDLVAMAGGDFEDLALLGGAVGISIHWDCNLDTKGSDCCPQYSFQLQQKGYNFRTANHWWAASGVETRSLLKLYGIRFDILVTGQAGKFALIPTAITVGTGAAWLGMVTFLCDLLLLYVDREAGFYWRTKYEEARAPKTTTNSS
UniProt O15547: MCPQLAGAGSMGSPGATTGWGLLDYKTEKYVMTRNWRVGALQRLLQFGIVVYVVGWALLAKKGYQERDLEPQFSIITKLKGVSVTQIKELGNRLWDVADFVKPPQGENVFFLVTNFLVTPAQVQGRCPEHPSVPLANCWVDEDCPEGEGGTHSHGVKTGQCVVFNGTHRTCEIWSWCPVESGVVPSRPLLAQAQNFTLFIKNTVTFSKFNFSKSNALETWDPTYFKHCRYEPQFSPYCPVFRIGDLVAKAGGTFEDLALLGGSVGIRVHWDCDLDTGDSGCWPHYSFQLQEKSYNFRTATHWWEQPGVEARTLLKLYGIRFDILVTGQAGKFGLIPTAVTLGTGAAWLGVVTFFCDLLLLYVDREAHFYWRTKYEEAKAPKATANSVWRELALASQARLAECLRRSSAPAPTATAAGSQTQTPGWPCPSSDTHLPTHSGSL
EXT-P2X6-myc (extracellular domain of P2X6 fused with c-myc): residues 61-333 of O15547
TM-P2X6-myc (transmembrane TM2 and C terminal region of P2X6 fused with c-myc): residues 334-441 of O15547

Legend:
[1] = target: spectrin α2 (mouse (endogenous in hippocampus)) (UniProt P16546); test: co-IP; nuclear fraction of 8 month-old mouse hippocampus; anti-P2X6, anti-spectrin α2 or anti-SF3A1 antibody or IgG control on MagSi-ProteinG beads, room temperature 1 h, washed three times with PBS; immunoblot
[2] = target: T1, splicing factor 3 subunit A1 (SF3A1), mouse hippocampus (mouse (endogenous in hippocampus)) (UniProt Q8K4Z5); test: as above
T1 sequence: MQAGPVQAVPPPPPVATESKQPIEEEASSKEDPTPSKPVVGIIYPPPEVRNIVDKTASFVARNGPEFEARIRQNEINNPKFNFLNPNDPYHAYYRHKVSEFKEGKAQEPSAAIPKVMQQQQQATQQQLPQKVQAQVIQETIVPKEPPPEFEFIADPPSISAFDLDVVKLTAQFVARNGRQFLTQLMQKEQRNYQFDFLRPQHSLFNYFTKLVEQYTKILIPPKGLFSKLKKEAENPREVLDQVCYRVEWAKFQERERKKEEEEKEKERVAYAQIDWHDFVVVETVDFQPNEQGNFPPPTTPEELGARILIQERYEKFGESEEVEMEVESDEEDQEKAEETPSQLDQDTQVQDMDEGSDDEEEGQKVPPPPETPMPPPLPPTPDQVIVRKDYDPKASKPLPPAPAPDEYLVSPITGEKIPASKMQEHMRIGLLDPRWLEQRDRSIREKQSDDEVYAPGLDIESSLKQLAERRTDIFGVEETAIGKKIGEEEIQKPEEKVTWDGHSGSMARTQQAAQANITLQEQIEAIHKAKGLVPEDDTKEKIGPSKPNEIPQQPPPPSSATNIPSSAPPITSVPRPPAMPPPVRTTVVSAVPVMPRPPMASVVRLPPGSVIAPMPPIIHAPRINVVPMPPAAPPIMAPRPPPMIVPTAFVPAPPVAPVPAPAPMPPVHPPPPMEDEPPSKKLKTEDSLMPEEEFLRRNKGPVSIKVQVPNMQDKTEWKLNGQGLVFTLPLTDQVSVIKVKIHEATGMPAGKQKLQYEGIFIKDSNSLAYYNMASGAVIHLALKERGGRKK

[3] = target: P2X6 subunit (native, mouse hippocampus) (mouse (endogenous in hippocampus)) (UniProt O54803); test: as above
[4] = target: TM-P2X6-myc (transmembrane TM2 and C terminal region of P2X6 fused with c-myc) (human) (UniProt O15547); test: co-IP; nuclear fraction of N2a cells overexpressing myc-tagged P2X6 constructs, immunoprecipitated with anti-myc antibody or IgG, immunoblot with anti-SF3A1
[5] = target: EXT-P2X6-myc (extracellular domain of P2X6 fused with c-myc) (human) (UniProt O15547); test: as above
[6] = target: full length P2X6-myc (human) (UniProt O15547); test: as above

binding [3]: binds
Molecule: spectrin α2 (from UniProt P16546 1-2472)

binding [4]: no binding | binding [5]: binds | binding [6]: binds
B2: SF3A1 (endogenous in N2a cells) (protein, UniProt Q8K4Z5 1-791)
chain: MQAGPVQAVPPPPPVATESKQPIEEEASSKEDPTPSKPVVGIIYPPPEVRNIVDKTASFVARNGPEFEARIRQNEINNPKFNFLNPNDPYHAYYRHKVSEFKEGKAQEPSAAIPKVMQQQQQATQQQLPQKVQAQVIQETIVPKEPPPEFEFIADPPSISAFDLDVVKLTAQFVARNGRQFLTQLMQKEQRNYQFDFLRPQHSLFNYFTKLVEQYTKILIPPKGLFSKLKKEAENPREVLDQVCYRVEWAKFQERERKKEEEEKEKERVAYAQIDWHDFVVVETVDFQPNEQGNFPPPTTPEELGARILIQERYEKFGESEEVEMEVESDEEDQEKAEETPSQLDQDTQVQDMDEGSDDEEEGQKVPPPPETPMPPPLPPTPDQVIVRKDYDPKASKPLPPAPAPDEYLVSPITGEKIPASKMQEHMRIGLLDPRWLEQRDRSIREKQSDDEVYAPGLDIESSLKQLAERRTDIFGVEETAIGKKIGEEEIQKPEEKVTWDGHSGSMARTQQAAQANITLQEQIEAIHKAKGLVPEDDTKEKIGPSKPNEIPQQPPPPSSATNIPSSAPPITSVPRPPAMPPPVRTTVVSAVPVMPRPPMASVVRLPPGSVIAPMPPIIHAPRINVVPMPPAAPPIMAPRPPPMIVPTAFVPAPPVAPVPAPAPMPPVHPPPPMEDEPPSKKLKTEDSLMPEEEFLRRNKGPVSIKVQVPNMQDKTEWKLNGQGLVFTLPLTDQVSVIKVKIHEATGMPAGKQKLQYEGIFIKDSNSLAYYNMASGAVIHLALKERGGRKK

More lines, now with the values behind:

Molecule: P2X6 subunit (native, mouse hippocampus) (from UniProt O54803 1-389)
binding [1]: binds | binding [2]: binds

B1: splicing factor 3 subunit A1 (SF3A1), mouse hippocampus (protein, UniProt Q8K4Z5 1-791)
chain: MQAGPVQAVPPPPPVATESKQPIEEEASSKEDPTPSKPVVGIIYPPPEVRNIVDKTASFVARNGPEFEARIRQNEINNPKFNFLNPNDPYHAYYRHKVSEFKEGKAQEPSAAIPKVMQQQQQATQQQLPQKVQAQVIQETIVPKEPPPEFEFIADPPSISAFDLDVVKLTAQFVARNGRQFLTQLMQKEQRNYQFDFLRPQHSLFNYFTKLVEQYTKILIPPKGLFSKLKKEAENPREVLDQVCYRVEWAKFQERERKKEEEEKEKERVAYAQIDWHDFVVVETVDFQPNEQGNFPPPTTPEELGARILIQERYEKFGESEEVEMEVESDEEDQEKAEETPSQLDQDTQVQDMDEGSDDEEEGQKVPPPPETPMPPPLPPTPDQVIVRKDYDPKASKPLPPAPAPDEYLVSPITGEKIPASKMQEHMRIGLLDPRWLEQRDRSIREKQSDDEVYAPGLDIESSLKQLAERRTDIFGVEETAIGKKIGEEEIQKPEEKVTWDGHSGSMARTQQAAQANITLQEQIEAIHKAKGLVPEDDTKEKIGPSKPNEIPQQPPPPSSATNIPSSAPPITSVPRPPAMPPPVRTTVVSAVPVMPRPPMASVVRLPPGSVIAPMPPIIHAPRINVVPMPPAAPPIMAPRPPPMIVPTAFVPAPPVAPVPAPAPMPPVHPPPPMEDEPPSKKLKTEDSLMPEEEFLRRNKGPVSIKVQVPNMQDKTEWKLNGQGLVFTLPLTDQVSVIKVKIHEATGMPAGKQKLQYEGIFIKDSNSLAYYNMASGAVIHLALKERGGRKK
binding [3]: binds
